The source of these data is PubChem BioAssay AID1508624 (National Center for Advancing Translational Sciences (NCATS), 2021).

Hit rate of the full screen: of about 48,000 compounds, about 120 (0.25%) were called active. Inconclusive results (about 4%) are left out. The call rests on the fitted dose curve; in most records, active means well fitted activation curve with a large enough effect; inconclusive means small, poorly fitted or top-dose-only effect, or another doubt; inactive means no such curve, though single readings can be large or run the other way. The list shows a part of the results.

The assay in a line: Primary qHTS for Identification of Small Molecule Activators of Huntingtin-Antisense Promoter Activity. Further: nearly all actives have a fitted effect of over 55% in size. The settings on record: HEK293 HTT-AS promoter firefly luciferase reporter, 24 h; series mostly up to 57.5 µM; activity change, positive = activation: at the top concentration. Put shortly:
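HEK293 luciferase promoter-reporter cells (2,500/well) plated 24 h, then compounds added at up to 57.5 uM final for 24 h at 37 °C. Firefly luminescence by Dual-Glo, normalized to vehicle (0%) and zero RLU (-100%).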
Take `COc1ccc(-c2noc(CN(C(=O)Cc3ccc(C)cc3)C(C)C)n2)cc1`: the “activity change, positive = activation” value was inactive: -29.3%.

For the compound `CCC(C)NC(=O)CSc1nnc(-c2ccc(C)cc2)c(-c2ccc(C)cc2)n1` (configuration not stated), the “activity change, positive = activation” value is inactive: -34.3%.

As to `O=C(NCCCO)C(=O)Nc1c2c(nn1-c1ccccc1)CSC2`, the “activity change, positive = activation” value was inactive: -11.4%.

Regarding `COc1cccc(CNC(=O)C2CCN(C(=O)c3sccc3-n3cccc3)CC2)c1`, the “activity change, positive = activation” value is inactive: -22.7%.

Regarding `CCC(CC)C(=O)NCc1nc2cccnc2n1Cc1ccc(F)cc1`, the “activity change, positive = activation” value was inactive: -13.7%.

Consider `CCCN(CCC)C(=O)c1cn(CC)c2ccc(S(=O)(=O)N3CCCCC3)cc2c1=O`, for which the activity change, positive = activation is inactive: 23.6% [at 11.5 µM, percent change from vehicle, -100% = no light].

Regarding `O=C(CN1C(=O)C2(SCC(=O)N2c2ccccc2)c2ccccc21)NCCc1ccccc1` (configuration not stated), the “activity change, positive = activation” value is inactive: 0.452%.

Consider `CCc1ccc(NC(=O)CSc2nc3c(sc4ccccc43)c(=O)n2CCN(CC)CC)cc1`, for which the “activity change, positive = activation” value was inactive: 1.54%.

On to `Cc1ccc(CNS(=O)(=O)c2cc3c(cc2C)N(C)CCO3)cc1`, for which the “activity change, positive = activation” value was inactive: -29.9%.

Take `Cc1cn2c(=O)cc(COC(=O)c3ccccc3F)nc2s1`: the “activity change, positive = activation” value is inactive: 7.37%.

Regarding `COc1cc(C)ccc1OCCSc1nc2ccc(NC(=O)c3cccs3)cc2s1`, the “activity change, positive = activation” value was inactive: -31.6%.

Regarding `Cc1ccc(C(=O)Nc2ccccc2C(=O)OCc2cc(=O)n3nc(C4CC4)sc3n2)cc1`, the “activity change, positive = activation” value was inactive: 11.6%.

For the compound `Cc1ccc(CNC(=O)CN2C(=O)CSc3ccc(S(=O)(=O)N4CCCC4)cc32)cc1`, the “activity change, positive = activation” value was inactive: -7.26%.

Turning to `COc1ccc2nc3sc(C(=O)N4CCN(c5ccc(F)cc5)CC4)cc3cc2c1`, the “activity change, positive = activation” value is inactive: 5.3%.

For `Cc1ccc(C)c(N2CCN(S(=O)(=O)c3ccc4c(c3)CCCN4C(=O)C3CCC3)CC2)c1`, the “activity change, positive = activation” value was inactive: -23.7%.

In the case of `CCOC(=O)c1cc(-c2ccc(OC)cc2)n(CCC(=O)Nc2cccc(C(C)=O)c2)c1C`, the “activity change, positive = activation” value was inactive: -39.5%.

Regarding `COc1ccc(CNS(=O)(=O)c2ccc(F)c(C(=O)Nc3c(C)cc(C)cc3C)c2)cc1`, the “activity change, positive = activation” value is inactive: -22%.

On to `Cc1cc2oc(C(=O)Nc3sc4c(c3C(=O)NCc3ccccc3)CCCC4)cc(=O)c2cc1C`, for which the “activity change, positive = activation” value was inactive: 2.14%.

Turning to `CN(C)c1ccc(CNC(=O)CN2C(=O)CCn3nc(-c4cn(C)c5ccccc45)cc32)cc1`, the “activity change, positive = activation” value was inactive: -3.62%.

With `COc1cccc(-c2nc3c(c(SCc4ccccc4Cl)n2)Cc2c(CO)cnc(C)c2O3)c1`, the “activity change, positive = activation” value was inactive: -6.84%.

Consider `CCOc1ccc(OCC)c(-n2cnnn2)c1`, for which the “activity change, positive = activation” value was inactive: -15.6%.

On to `Cc1c(NC(=O)Nc2ccc(Cl)c(C(F)(F)F)c2)c(=O)n(-c2ccccc2)n1C`, for which the “activity change, positive = activation” value is inactive: 0.141%.

As to `Fc1ccccc1N1CCN(c2ncnc3onc(-c4cccc(Cl)c4)c23)CC1`, the “activity change, positive = activation” value is inactive: -22.3%.

Turning to `CC(=O)Nc1ccc(NC(=O)c2nc(SCc3ccccc3C)ncc2Cl)cc1`, the “activity change, positive = activation” value was inactive: -15.8%.

On to `Cc1cccn2c(=O)cc(COc3ccc(NC(=O)C(C)Oc4ccccc4)cc3)nc12` (configuration not stated), for which the “activity change, positive = activation” value was inactive: -30.6%.

Turning to `Cn1c(=O)c2c(-c3ccccc3Br)n(Cc3ccccc3)cc2n(C)c1=O`, the “activity change, positive = activation” value is inactive: -17.1%.

For `NS(=O)(=O)c1ccc(NC(=O)CN2CCN(c3ccc(F)cc3)CC2)cc1`, the “activity change, positive = activation” value is inactive: -17.8%.

Consider `COc1ccc(-n2c(SCC(=O)NC3CCCCC3)nc3c([nH]c4ccccc43)c2=O)cc1`, for which the “activity change, positive = activation” value is inactive: -26.9%.

For the compound `COc1ccc(-c2cc3c(=O)n(CC(=O)Nc4cc(C)ccc4C)ccn3n2)cc1`, the “activity change, positive = activation” value was inactive: 12.4%.

For `Cc1ccc(Cl)cc1-n1ncc2c(NCCC3=CCCCC3)ncnc21`, the “activity change, positive = activation” value was inactive: 19.1%.

On to `CCOc1ccc(-c2nnc(SCC(=O)c3ccc(F)cc3)n2-c2ccccc2)cc1`, for which the “activity change, positive = activation” value is inactive: -37.2%.

For `Cc1ccc(CNC(=O)c2cccc(NC(=O)N3CCSc4ncccc43)c2)cc1`, the “activity change, positive = activation” value was inactive: -19.9%.

In the case of `Cc1ccc(S(=O)(=O)C(CNC(=O)COc2ccc(Cl)cc2)c2ccco2)cc1` (configuration not stated), the “activity change, positive = activation” value was inactive: -17.2%.

With `Cc1cc(C)cc(NC(=O)CCCc2nnc3n(CC(C)C)c(=O)c4sccc4n23)c1`, the “activity change, positive = activation” value was inactive: -3.61%.

As to `CCN(CC)CCCNC(=O)C(=O)Nc1ccc2nc3n(c(=O)c2c1)CCCCC3`, the “activity change, positive = activation” value is inactive: 10.6%.

For the compound `COc1ccc(/C=C/C(=O)Nc2ccc(Cl)cc2Cl)cc1`, the “activity change, positive = activation” value was inactive: 7.01%.

In the case of `Cc1ccc(NC(=O)Cn2cc(C(=O)c3ccco3)c3ccccc32)c(C)c1`, the “activity change, positive = activation” value is inactive: -36.4%.

For `O=C(Nc1cccc(Cl)c1)c1cc(S(=O)(=O)N2CCCc3ccccc32)ccc1F`, the “activity change, positive = activation” value is inactive: -30.5%.

Take `CCOc1cc(C2CC(=O)Nc3c2c(=O)nc(SCc2cccc(Cl)c2)n3C)ccc1O` (configuration not stated): the “activity change, positive = activation” value is inactive: -1.12%.

With `Cc1ccccc1CNC(=O)c1cc2cccc3c2n1CC(C)S3` (configuration not stated), the “activity change, positive = activation” value is inactive: -24.7%.

Take `CNC(=O)c1c(F)cccc1Nc1nc(Nc2cc3c(cc2OC)CCN3C(=O)CN(C)C)nc2[nH]ccc12`: the “activity change, positive = activation” value is inactive: -47.9%.

Consider `CCOc1ccc(NC(=O)Cn2c(=O)n(Cc3ccc(C(=O)NCc4ccc(C)cc4)cc3)c(=O)c3ccccc32)cc1`, for which the “activity change, positive = activation” value was inactive: -8.68%.

As for `CC=CC[C@@H](C)C(=O)[C@H]1C(=O)N[C@@H](C(C)C)C(=O)N(C)CC(=O)N(C)[C@@H](CC(C)C)C(=O)N[C@@H](C(C)C)C(=O)N(C)[C@@H](CC(C)C)C(=O)N[C@@H](C)C(=O)N[C@H](C)C(=O)N(C)[C@@H](CC(C)C)C(=O)N(C)[C@@H](CC(C)C)C(=O)N(C)[C@@H](C(C)C)C(=O)N1C`, the “activity change, positive = activation” value was inactive: 17.2%.

Turning to `COc1cccc(CNC(=O)CN2C(=O)COc3ccc(S(=O)(=O)N4CCCCCC4)cc32)c1`, the “activity change, positive = activation” value was inactive: -25.9%.

For the compound `CCc1cccc(NC(=O)Cn2c(=O)n(CCC(=O)NCC3CCCO3)c(=O)c3cc(OC)c(OC)cc32)c1` (configuration not stated), the “activity change, positive = activation” value is inactive: 1.66%.

Regarding `Cc1ccc(-c2nc3ncccc3o2)cc1NC(=O)c1ccccc1Br`, the “activity change, positive = activation” value is inactive: -3.19%.

Consider `Cc1ccc(CNC(=O)c2cc3c(s2)-c2ccc(Cl)cc2SC3)cc1`, for which the “activity change, positive = activation” value was inactive: -9.22%.

As to `CN(C)c1ccc(NC(=O)CN2CCN(CC(=O)Nc3ccc(Br)cc3)CC2)cc1`, the “activity change, positive = activation” value is inactive: 31.2%.

Turning to `Cc1ccc(CSC2=Nc3ccccc3C3=NC(CC(=O)NCc4cccs4)C(=O)N23)cc1` (configuration not stated), the “activity change, positive = activation” value is inactive: 0.814%.

Consider `CC1CC(=O)N(CC(=O)Nc2ccc(F)cc2F)c2ccccc2S1` (configuration not stated), for which the “activity change, positive = activation” value is inactive: -14.5%.

Take `O=C(CCCn1ccc2cc(S(=O)(=O)N3CCCC3)ccc21)NCc1ccc(Cl)cc1`: the “activity change, positive = activation” value is inactive: -35.9%.

Turning to `CCc1ccc(C2CC(=O)NC(NC(=O)c3ccc(C(C)(C)C)cc3)=N2)cc1` (configuration not stated), the “activity change, positive = activation” value was inactive: 9.89%.

In the case of `Cc1c(-c2ccccc2)c(=O)oc2c(CN3CCCC3)c(O)ccc12`, the “activity change, positive = activation” value was inactive: -4.5%.

As to `CCOc1ccc(/C=C/c2nc(C#N)c(Nc3ccc(OCC)cc3)o2)cc1`, the “activity change, positive = activation” value is inactive: 0.599%.

In the case of `Cc1nc2ccn(Cc3ccccc3)c(=O)c2cc1C(=O)NCc1ccccc1F`, the “activity change, positive = activation” value was inactive: -22.4%.

`COc1ccc(NC(=O)Nc2cccc(-c3cn4cccnc4n3)c2)cc1`: the “activity change, positive = activation” value was inactive: 26.2%.

As for `O=C(NCCc1ccc(Cl)cc1)c1ccc2c(c1)N(Cc1ccccc1F)C(=O)c1ccccc1S2(=O)=O`, the “activity change, positive = activation” value was inactive: 6.25%.
